# Biological target: isolated recombinant JAK1 kinase domain (Homo sapiens (Human), UniProt P23458)
# Conditions: read-out: JAK1 Ki; isolated recombinant JAK1 kinase domain, 25 μM ATP
row,Ki,Compound
1,1.9 nM,"CCOC(=O)N1CC=C(c2cccn3nc(Nc4ccc(C(=O)N5CCN(c6cccnc6)CC5)cc4)nc23)CC1 [Example 2-19, ethyl 4-[2-[4-[4-(3-pyridyl)piperazine-1-carbonyl]anilino]-[1,2,4]triazolo[1,5-a]pyridin-8-yl]-3,6-dihydro-2H-pyridine-1-carboxylate]"
2,1.62 nM,"CCOC(=O)N1CC=C(c2cccn3nc(Nc4ccc(C(=O)N5CCN(C)CC(CO)C5)cc4)nc23)CC1 (stereo not drawn) [Example 2-20, ethyl 4-[2-[4-[6-(hydroxymethyl)-4-methyl-1,4-diazepane-1-carbonyl]anilino]-[1,2,4]triazolo[1,5-a]pyridin-8-yl]-3,6-dihydro-2H-pyridine-1-carboxylate]"
3,2.85 nM,"CCOC(=O)N1CC=C(c2cccn3nc(Nc4ccc(C(=O)N5CCCC5C5CCCCN5C)cc4)nc23)CC1 (stereo not drawn) [Example 2-21, ethyl 4-[2-[4-[2-(1-methyl-2-piperidyl)pyrrolidine-1-carbonyl]anilino]-[1,2,4]triazolo[1,5-a]pyridin-8-yl]-3,6-dihydro-2H-pyridine-1-carboxylate]"
4,7.6 nM,"CCOC(=O)N1CC=C(c2cccn3nc(Nc4ccc(C(=O)N5CCCC5c5cc(N(C)C)cc(C)n5)cc4)nc23)CC1 (stereo not drawn) [Example 2-22, ethyl 4-[2-[4-[2-[4-(dimethylamino)-6-methyl-2-pyridyl]pyrrolidine-1-carbonyl]anilino]-[1,2,4]triazolo[1,5-a]pyridin-8-yl]-3,6-dihydro-2H-pyridine-1-carboxylate]"
5,1.56 nM,"CCOC(=O)N1CC=C(c2cccn3nc(Nc4ccc(C(=O)N5CCNCC5C)cc4)nc23)CC1 (stereo not drawn) [Example 2-24, ethyl 4-[2-[4-(2-methylpiperazine-1-carbonyl)anilino]-[1,2,4]triazolo[1,5-a]pyridin-8-yl]-3,6-dihydro-2H-pyridine-1-carboxylate]"
6,2.85 nM,"CCOC(=O)N1CC=C(c2cccn3nc(Nc4ccc(C(=O)N5CCOC6(CCNCC6)C5)cc4)nc23)CC1 [Example 2-25, ethyl 4-[2-[4-(1-oxa-4,9-diazaspiro[5.5]undecane-4-carbonyl)anilino]-[1,2,4]triazolo[1,5-a]pyridin-8-yl]-3,6-dihydro-2H-pyridine-1-carboxylate]"
7,1.63 nM,"CCOC(=O)N1CC=C(c2cccn3nc(Nc4ccc(C(=O)NC5CC6(CCNCC6)C5)cc4)nc23)CC1 [Example 2-27, ethyl 4-[2-[4-(7-azaspiro[3.5]nonan-2-ylcarbamoyl)anilino]-[1,2,4]triazolo[1,5-a]pyridin-8-yl]-3,6-dihydro-2H-pyridine-1-carboxylate]"
8,1.42 nM,"O=C(CCC(F)(F)F)N1CC=C(c2cccn3nc(Nc4ccc(C(=O)N5CCC6(CCNC6)C5)cc4)nc23)CC1 (stereo not drawn) [Example 2-28, 1-[4-[2-[4-(2,7-diazaspiro[4.4]nonane-2-carbonyl)anilino]-[1,2,4]triazolo[1,5-a]pyridin-8-yl]-3,6-dihydro-2H-pyridin-1-yl]-4,4,4-trifluoro-butan-1-one]"
9,1.49 nM,"O=C(CCC(F)(F)F)N1CC=C(c2cccn3nc(Nc4ccc(C(=O)N5CCC6(CCNCC6)CC5)cc4)nc23)CC1 [Example 2-29, 1-[4-[2-[4-(3,9-diazaspiro[5.5]undecane-3-carbonyl)anilino]-[1,2,4]triazolo[1,5-a]pyridin-8-yl]-3,6-dihydro-2H-pyridin-1-yl]-4,4,4-trifluoro-butan-1-one]"
10,1.43 nM,"O=C(NCC1CNCCO1)c1ccc(Nc2nc3c(C4=CCN(C(=O)CCC(F)(F)F)CC4)cccn3n2)cc1 (stereo not drawn) [Example 2-30, N-(morpholin-2-ylmethyl)-4-[[8-[1-(4,4,4-trifluorobutanoyl)-3,6-dihydro-2H-pyridin-4-yl]-[1,2,4]triazolo[1,5-a]pyridin-2-yl]amino]benzamide]"
11,1.51 nM,"CNCCNC(=O)c1ccc(Nc2nc3c(C4=CCN(C(=O)CCC(F)(F)F)CC4)cccn3n2)cc1 [Example 2-31, N-[2-(methylamino)ethyl]-4-[[8-[1-(4,4,4-trifluorobutanoyl)-3,6-dihydro-2H-pyridin-4-yl]-[1,2,4]triazolo[1,5-a]pyridin-2-yl]amino]benzamide]"
12,1.38 nM,"O=C(NCCN1CCNCC1)c1ccc(Nc2nc3c(C4=CCN(C(=O)CCC(F)(F)F)CC4)cccn3n2)cc1 [Example 2-32, N-(2-piperazin-1-ylethyl)-4-[[8-[1-(4,4,4-trifluorobutanoyl)-3,6-dihydro-2H-pyridin-4-yl]-[1,2,4]triazolo[1,5-a]pyridin-2-yl]amino]benzamide]"
13,0.63 nM,"O=C(CCC(F)(F)F)N1CC=C(c2cccn3nc(Nc4ccc(C(=O)N5CCNCC5CO)cc4)nc23)CC1 (stereo not drawn) [Example 2-33, 4,4,4-trifluoro-1-[4-[2-[4-[2-(hydroxymethyl)piperazine-1-carbonyl]anilino]-[1,2,4]triazolo[1,5-a]pyridin-8-yl]-3,6-dihydro-2H-pyridin-1-yl]butan-1-one]"
14,1.93 nM,"O=C(CCC(F)(F)F)N1CC=C(c2cccn3nc(Nc4ccc(C(=O)N5CCCCC56CCCNC6)cc4)nc23)CC1 (stereo not drawn) [Example 2-34, 1-[4-[2-[4-(1,8-diazaspiro[5.5]undecane-1-carbonyl)anilino]-[1,2,4]triazolo[1,5-a]pyridin-8-yl]-3,6-dihydro-2H-pyridin-1-yl]-4,4,4-trifluoro-butan-1-one]"
15,0.82 nM,"O=C(CCC(F)(F)F)N1CC=C(c2cccn3nc(Nc4ccc(C(=O)N5CC6(CCNC6)C5)cc4)nc23)CC1 [Example 2-35, 1-[4-[2-[4-(2,7-diazaspiro[3.4]octane-2-carbonyl)anilino]-[1,2,4]triazolo[1,5-a]pyridin-8-yl]-3,6-dihydro-2H-pyridin-1-yl]-4,4,4-trifluoro-butan-1-one]"
16,2.29 nM,"CN(C(=O)c1ccc(Nc2nc3c(C4=CCN(C(=O)CCC(F)(F)F)CC4)cccn3n2)cc1)C1CCCNC1 (stereo not drawn) [Example 2-36, N-methyl-N-(3-piperidyl)-4-[[8-[1-(4,4,4-trifluorobutanoyl)-3,6-dihydro-2H-pyridin-4-yl]-[1,2,4]triazolo[1,5-a]pyridin-2-yl]amino]benzamide]"
17,1.16 nM,"O=C(CCC(F)(F)F)N1CC=C(c2cccn3nc(Nc4ccc(C(=O)N5CC6CNCC(C5)O6)cc4)nc23)CC1 [Example 2-37, 4,4,4-trifluoro-1-[4-[2-[4-(9-oxa-3,7-diazabicyclo[3.3.1]nonane-3-carbonyl)anilino]-[1,2,4]triazolo[1,5-a]pyridin-8-yl]-3,6-dihydro-2H-pyridin-1-yl]butan-1-one]"
18,1.21 nM,"CN1CC[C@H]2CN(C(=O)c3ccc(Nc4nc5c(C6=CCN(C(=O)CCC(F)(F)F)CC6)cccn5n4)cc3)C[C@H]21 [Example 2-38, 1-[4-[2-[4-[(3aS,6aS)-1-methyl-2,3,3a,4,6,6a-hexahydropyrrolo[3,4-b]pyrrole-5-carbonyl]anilino]-[1,2,4]triazolo[1,5-a]pyridin-8-yl]-3,6-dihydro-2H-pyridin-1-yl]-4,4,4-trifluoro-butan-1-one]"
19,1.79 nM,"CCN1CCC(CN(C)C(=O)c2ccc(Nc3nc4c(C5=CCN(C(=O)CCC(F)(F)F)CC5)cccn4n3)cc2)C1 (stereo not drawn) [Example 2-39, N-[(1-ethylpyrrolidin-3-yl)methyl]-N-methyl-4-[[8-[1-(4,4,4-trifluorobutanoyl)-3,6-dihydro-2H-pyridin-4-yl]-[1,2,4]triazolo[1,5-a]pyridin-2-yl]amino]benzamide]"
20,0.51 nM,"CN1CCCC12CN(C(=O)c1ccc(Nc3nc4c(C5=CCN(C(=O)CCC(F)(F)F)CC5)cccn4n3)cc1)C2 [Example 2-40, 4,4,4-trifluoro-1-[4-[2-[4-(5-methyl-2,5-diazaspiro[3.4]octane-2-carbonyl)anilino]-[1,2,4]triazolo[1,5-a]pyridin-8-yl]-3,6-dihydro-2H-pyridin-1-yl]butan-1-one]"
21,0.58 nM,"Cc1ccnc(CNC(=O)c2ccc(Nc3nc4c(C5=CCN(C(=O)CCC(F)(F)F)CC5)cccn4n3)cc2)c1 [Example 2-41, N-[(4-methyl-2-pyridyl)methyl]-4-[[8-[1-(4,4,4-trifluorobutanoyl)-3,6-dihydro-2H-pyridin-4-yl]-[1,2,4]triazolo[1,5-a]pyridin-2-yl]amino]benzamide]"
22,0.56 nM,"Cc1ncccc1CNC(=O)c1ccc(Nc2nc3c(C4=CCN(C(=O)CCC(F)(F)F)CC4)cccn3n2)cc1 [Example 2-42, N-[(2-methyl-3-pyridyl)methyl]-4-[[8-[1-(4,4,4-trifluorobutanoyl)-3,6-dihydro-2H-pyridin-4-yl]-[1,2,4]triazolo[1,5-a]pyridin-2-yl]amino]benzamide]"
23,2.58 nM,"CC(CC(=O)N1CC=C(c2cccn3nc(Nc4ccc(C(=O)N(C)C5CCN(C)CC5)cc4)nc23)CC1)C(F)(F)F (stereo not drawn) [Example 2-43, N-methyl-N-(1-methyl-4-piperidyl)-4-[[8-[1-(4,4,4-trifluoro-3-methyl-butanoyl)-3,6-dihydro-2H-pyridin-4-yl]-[1,2,4]triazolo[1,5-a]pyridin-2-yl]amino]benzamide]"
24,1.13 nM,"O=C(CCC(F)(F)F)N1CC=C(c2cccn3nc(Nc4ccc(C(=O)N5CCC(N6CCOCC6)C5)cc4)nc23)CC1 (stereo not drawn) [Example 2-45, 4,4,4-trifluoro-1-[4-[2-[4-(3-morpholinopyrrolidine-1-carbonyl)anilino]-[1,2,4]triazolo[1,5-a]pyridin-8-yl]-3,6-dihydro-2H-pyridin-1-yl]butan-1-one]"
25,1.4 nM,"O=C(CCC(F)(F)F)N1CC=C(c2cccn3nc(Nc4ccc(C(=O)N5CCC(N6CCCC6)CC5)cc4)nc23)CC1 [Example 2-46, 4,4,4-trifluoro-1-[4-[2-[4-(4-pyrrolidin-1-ylpiperidine-1-carbonyl)anilino]-[1,2,4]triazolo[1,5-a]pyridin-8-yl]-3,6-dihydro-2H-pyridin-1-yl]butan-1-one]"
26,0.73 nM,"CC1CCCCN1CCCNC(=O)c1ccc(Nc2nc3c(C4=CCN(C(=O)CCC(F)(F)F)CC4)cccn3n2)cc1 (stereo not drawn) [Example 2-47, N-[3-(2-methyl-1-piperidyl)propyl]-4-[[8-[1-(4,4,4-trifluorobutanoyl)-3,6-dihydro-2H-pyridin-4-yl]-[1,2,4]triazolo[1,5-a]pyridin-2-yl]amino]benzamide]"
27,0.71 nM,"CN1CCCC1CCNC(=O)c1ccc(Nc2nc3c(C4=CCN(C(=O)CCC(F)(F)F)CC4)cccn3n2)cc1 (stereo not drawn) [Example 2-48, N-[2-(1-methylpyrrolidin-2-yl)ethyl]-4-[[8-[1-(4,4,4-trifluorobutanoyl)-3,6-dihydro-2H-pyridin-4-yl]-[1,2,4]triazolo[1,5-a]pyridin-2-yl]amino]benzamide]"

# From patent US9873709B2 (priority 2013, dated 2018)
